In publication PMC4336329 (PLoS ONE, 2015):
In all, about 310,000 compounds went through this assay and about 14,000 (4.5%) showed an effect of 50% or more. Effects have a minus sign here. Some of the results follow.

Molecular target: human ether-à-go-go-related gene (hERG) potassium channel (human, UniProt Q12809)
Test: primary screen, population patch clamp on CHO cells stably expressing hERG
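Also: peak tail current of the secondary pulse compared with the same well before compound.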

human ether-à-go-go-related gene (hERG) potassium channel, sequence (Q12809 whole entry, looked up): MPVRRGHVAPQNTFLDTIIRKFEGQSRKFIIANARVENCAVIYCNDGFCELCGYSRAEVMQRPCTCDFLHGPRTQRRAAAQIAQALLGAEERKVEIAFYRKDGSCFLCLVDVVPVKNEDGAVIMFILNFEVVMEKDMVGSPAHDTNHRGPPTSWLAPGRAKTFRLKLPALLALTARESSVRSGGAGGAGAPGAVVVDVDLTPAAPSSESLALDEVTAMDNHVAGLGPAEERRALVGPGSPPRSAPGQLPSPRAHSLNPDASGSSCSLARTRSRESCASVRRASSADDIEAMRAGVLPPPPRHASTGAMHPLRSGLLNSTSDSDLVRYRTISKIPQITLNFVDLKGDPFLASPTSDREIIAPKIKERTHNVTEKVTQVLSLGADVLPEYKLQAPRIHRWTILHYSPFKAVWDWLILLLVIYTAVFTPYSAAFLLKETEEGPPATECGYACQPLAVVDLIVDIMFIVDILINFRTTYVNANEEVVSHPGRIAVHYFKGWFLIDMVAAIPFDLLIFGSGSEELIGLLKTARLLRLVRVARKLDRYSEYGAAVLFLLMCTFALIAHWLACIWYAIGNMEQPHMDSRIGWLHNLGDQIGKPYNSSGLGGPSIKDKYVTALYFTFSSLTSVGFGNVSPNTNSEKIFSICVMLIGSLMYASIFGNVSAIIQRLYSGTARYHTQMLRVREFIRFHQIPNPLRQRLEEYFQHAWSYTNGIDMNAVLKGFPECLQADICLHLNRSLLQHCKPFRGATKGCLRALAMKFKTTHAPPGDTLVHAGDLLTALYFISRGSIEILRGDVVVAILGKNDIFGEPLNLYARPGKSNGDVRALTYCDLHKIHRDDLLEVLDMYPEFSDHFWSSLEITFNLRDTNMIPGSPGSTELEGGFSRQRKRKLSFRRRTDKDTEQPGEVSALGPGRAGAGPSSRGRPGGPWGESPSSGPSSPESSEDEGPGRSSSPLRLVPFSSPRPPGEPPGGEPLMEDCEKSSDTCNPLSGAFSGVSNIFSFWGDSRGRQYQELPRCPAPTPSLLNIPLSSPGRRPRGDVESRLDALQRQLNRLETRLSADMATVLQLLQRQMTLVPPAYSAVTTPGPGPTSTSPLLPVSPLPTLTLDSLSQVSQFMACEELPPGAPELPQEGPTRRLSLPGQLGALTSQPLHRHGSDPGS

| Compound | hERG current change (%, negative = inhibition) at 10uM |
| --- | --- |
| C/C(=C\C(=O)c1ccccc1)Nc1ccc(O)cc1 | 8.32% |
| Cc1cccc(Nc2ncnc3ccccc23)c1.Cl | -5.93% |
| O=C(CN1C(=O)NC2(CCCC2)C1=O)N1CCN(C(=O)c2ccco2)CC1 | 4.41% |
| c1ccc2c(CN3CCOCC3)c3ccccc3c(CN3CCOCC3)c2c1 | 15.3% |
| COc1ccc(C(=O)COC(=O)c2ccccn2)cc1OC | -1.03% |
| CCOc1ccc(S(=O)(=O)N2CCOCC2)cc1NC(=O)Cc1c(F)cccc1Cl | 9.66% |
| COc1ccc(-c2cc(C(=O)N(C)Cc3ccc(F)cc3)c3ccccc3n2)cc1OC | 5.63% |
| OCC#CCSc1nnc(-c2ccc(Br)cc2)o1 | -17.2% |
| CCCNC(=O)Cc1c(C)oc2ccccc12 | 5.39% |
| CCCCc1cc(=O)oc2cc(C)cc(OCc3nn[nH]n3)c12 | -14.8% |
| COc1ccc(-c2nc(C(F)(F)F)c(OC)o2)cc1OC | 3.39% |
| On1nnc2ccc(C(F)(F)F)cc21 | 33.7% |
| CC(=O)Nc1ccc(NC(=O)C(C)OC(=O)c2ccc(N(C)C)cc2)cc1 (stereo not shown) | 7.41% |
| CCOC(=O)c1ccc(NC(=O)/C=C/c2cccs2)cc1 | -5.15% |
| O=C(Nc1ccccc1-c1ccccc1)C1CCC1 | 13% |
| Cc1cc(N2CCN(C)CC2)nc(=S)[nH]1 | 15.3% |
| CN(C)N(C(=O)c1cc(-c2cccs2)nn1-c1ccccc1)C1CCS(=O)(=O)C1 (stereo not shown) | 0.00128% |
| Cn1c(N)c(C(c2ccccc2)c2c(N)n(C)c(=O)n(C)c2=O)c(=O)n(C)c1=O | 2.52% |
| COc1ccc(N2CCN(Cc3cc(=O)oc4cc(-c5ccccc5)c(O)cc34)CC2)cc1 | -0.18% |
| Cc1ccc(-c2nc3ccccc3[nH]2)cn1 | 14.9% |
| O=C(Nc1ccc2oc(-c3ccccc3Cl)nc2c1)c1cncc(Br)c1 | -8.01% |
| Cn1cc(CCC(=O)N2CCCC(C(=O)c3ccc(C(C)(C)C)cc3)C2)cn1 (stereo not shown) | -37.8% |
| O=C(c1c[nH]c2ccc(S(=O)(=O)N3CCC4(CC3)OCCO4)cc2c1=O)N1CCC2(CC1)OCCO2 | 4.7% |

| Compound | hERG current change (%, negative = inhibition) at 10uM |
| --- | --- |
| Cc1cc(C)nc(NC(=O)c2cccc(Br)c2)n1 | 17.6% |
| CCOc1ccc(CN2CCNC(=O)C2CC(=O)NCc2cc(C)n(C)n2)cc1 (stereo not shown) | -1.95% |
| CCOC(=O)[C@H]1[C@H]2COc3ccc(C)cc3[C@@H]2N2C(=O)[C@@H](C)NC(=O)[C@@]12C | 6.22% |
| CC(=O)c1c(C)[nH]c(C(=O)N2CCN(S(=O)(=O)c3ccc(F)c(F)c3)CC2)c1C | -1.32% |
| CCOc1cc(/C=N/NS(=O)(=O)c2ccc(OC)cc2)ccc1OCCN1CCOCC1 | -53.8% |
| COc1cccc(CCNS(=O)(=O)CCNC(=O)c2cccc(OC)c2)c1 | -26.2% |
| CCOc1c(Br)cc(C2NS(=O)(=O)N=C3CCCCCN32)cc1OC (stereo not shown) | 22.6% |
| CC(C)CC(=O)C(=O)[O-].[Na+] | -0.864% |
| CS(=O)(=O)Nc1nnc(SCC(=O)N(c2ccccc2)c2ccccc2)s1 | 19% |
| COCC(=O)Nc1nc2ccccc2s1 | -6.01% |
| OCC1(CO)COC(/C=C/c2ccccc2)=N1 | -3.43% |
| COc1cc(/C=C2/CC/C(=C/c3ccc(O)c(OC)c3)C2=O)ccc1O | -2.88% |
| COc1ccnc(-n2cccc2C=O)c1C#N | 8.09% |
| COc1ccc(-c2nc3ccccn3c2C=O)cc1 | 9.23% |
| COc1ccc(C)cc1N(CC(=O)NC1CCCC1)C(=O)CCC(=O)Nc1cc(C)on1 | 5.61% |
| O=C1c2ccccc2C(=O)N1CCCc1nc(-c2cccnc2)no1 | -9.56% |
| Cc1ccc(C(=O)NNC(=O)c2cccc(C)c2)cc1 | 13.6% |
| Cc1ccc(NC(=O)CS(=O)CC(=O)Nc2cccc(C)c2C)cc1F (stereo not shown) | 14.5% |
| O=C(Nc1ccc(N2CCOCC2)c(Cl)c1)c1ccccc1Cl | 15.2% |
| O=C(/C=C/Nc1ccc(Br)cn1)c1cccc(OC(F)F)c1 | 4.45% |
| CCCc1cc(=O)oc2cc(C)cc(OC(=O)c3ccco3)c12 | 7.89% |
| O=C(NCc1ccco1)C1(S(=O)(=O)c2ccccc2)CC=CC1 | 15.8% |
| CC(C)C(NC(=O)c1ccccc1F)C(=O)OCC(=O)c1ccc(F)cc1 (stereo not shown) | -9.49% |
